Results as given in PubChem BioAssay AID493208 (National Center for Advancing Translational Sciences (NCATS), 2011).
Hit rate of the full screen: of about 44,000 compounds, about 340 (0.77%) were called active. Roughly 5% stayed inconclusive and do not appear here. Calls follow the shape of the dose curve; as a rule, active = well fitted inhibition curve with a large enough effect; inconclusive = small, poorly fitted or top-dose-only effect; inactive = flat fitted curve, though single readings scatter. The list shows a part of the results.

Assay: Acumen qHTS Assay for Inhibitors of the mTORC1 Signaling Pathway in MEF (Tsc2-/-, p53-/-) Cells: Sytravon;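 also: plate controls were DMSO for no effect and rapamycin for full effect; nearly all actives have a fitted effect of over 50% in size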
Conditions: phospho-rpS6 immunofluorescence/PI, 24 h; series mostly up to 38.3 µM; activity change, negative = inhibition: at the top concentration
How it was run: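 Tsc2-/-, p53-/- mouse embryonic fibroblasts (empty-vector line) exposed to compound 24 hrs at 37 C, fixed, immunostained for phospho-rpS6 and counterstained with propidium iodide. Acumen laser scanning gives % positive cells from Alexa 488/PI ratio, thresholded using 7.5 nM rapamycin; PI count gives viability.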

SMILES | activity change, negative = inhibition
CCCC(O)c1nc2ccccc2n1CCCOc1ccc(Cl)cc1 (stereo not drawn) | inactive: -8.35%
CCc1cccc(NC(=O)C2CCCN(c3ncnc4onc(-c5ccc(F)cc5)c34)C2)c1 (stereo not drawn) | inactive: -8.67%
COc1ccc(-c2noc(CSCC(=O)Nc3cc(OC)c(OC)c(OC)c3)n2)cc1OC | inactive: -0.391%
CCn1cc(C(=O)OCC(=O)Nc2ccc(C)c(Cl)c2)c(=O)c2ccc(C)nc21 | inactive: 4.04%
CCN1CCSc2ccc(C(=O)NCc3ccc(OC(C)C)cc3)cc21 | inactive: -3.81%
CCOc1ccc(-c2cc3c(=O)n(CC(=O)NCc4ccc(C)cc4)ccn3n2)cc1 | inactive: 0%
COc1ccc(N(Cc2cc3ccccc3[nH]c2=O)C(=O)c2cccc(Cl)c2)cc1 | inactive: -0.397%
CCOC(=O)Cc1ccc(NC(=O)NCc2c(-n3cccc3)sc3c2CCCC3)cc1 | inactive: 0.778%
CC(=O)N1c2ccccc2CC1C(=O)N1CCN(c2ccccc2)CC1 (stereo not drawn) | inactive: 0%
Cc1ccc(NC(=O)c2c(C)cc(C)nc2SCC(=O)Nc2ccc(Br)cc2)cc1 | inactive: -3.26%
CCc1nc2ccc(C(=O)NCCc3ccccc3OC)cc2nc1CC | inactive: 1.68%
CCCCN1CC(c2nc3ccccc3n2CCCCOc2cc(C)ccc2C)CC1=O (stereo not drawn) | inactive: -1.49%
Cc1cc2nc(-c3cccc(NC(=O)c4cccc5ccccc45)c3)oc2cc1C | inactive: -0.564%
Cc1cccc(OCC(=O)Nc2cccc(OCc3cc(=O)n4cccc(C)c4n3)c2)c1 | inactive: 0%
O=C(/C=C/c1ccccc1)Nc1cc(-c2nc3cc(Cl)ccc3o2)ccc1Cl | inactive: 1.14%
CCOc1ccc(N2CC(NC(=O)c3ccco3)CC2=O)cc1 (stereo not drawn) | inactive: -0.496%
COc1cccc(-n2ccnc2SCC(=O)Nc2c(C)cc(C)cc2C)c1 | inactive: -4.38%
Cc1cc(C)c(NC(=O)Cn2c(=O)c3cccn3c3ccccc32)c(C)c1 | inactive: -18.4%
CCCCNC(=O)c1ccc2c(c1)N(Cc1ccc(F)cc1)C(=O)c1ccccc1S2=O (stereo not drawn) | inactive: -3.79%
Cc1ccc(NC(=O)/C=C\C(=O)N(c2ccc(C(C)C)cc2)C(C(=O)NCc2ccco2)c2ccc(Cl)cc2)cc1 (stereo not drawn) | inactive: -3.06%
CCOCCCNC(=O)c1ccc(-n2c(-c3ccccc3)cc3c2CCCC3)cc1 | inactive: -13.1%
Cc1cccc(C(=O)OCc2cc(=O)n3ccsc3n2)c1 | inactive: -2.52%
COc1ccc(Cn2ccc3nc(C)c(C(=O)Nc4ccc(OC)cc4)cc3c2=O)cc1 | inactive: -14%
COc1ccc(CNC(=O)C2CCN(S(=O)(=O)c3c(C)noc3/C=C/c3ccccc3F)CC2)cc1 | inactive: 2.32%

SMILES | activity change, negative = inhibition
Cc1ccc(-n2c(C)cc(C(=O)C(=O)Nc3ccccc3)c2C)c(C)c1 | inactive: -3.91%
CC(C(=O)NCCSCc1cccc(Cl)c1)N(c1ccccc1)S(C)(=O)=O (stereo not drawn) | inactive: -19.5%
CC(=O)Nc1nc2n(n1)C(c1ccc(F)cc1)C=C(c1ccc(Cl)cc1)N2 (stereo not drawn) | inactive: 0.666%
COc1ccc(CCNC(=O)CCn2c(=O)c3ccccc3n(Cc3ccccc3F)c2=O)cc1OC | inactive: -14.9%
CC(=O)c1cccc(NC(=O)C2CCN(S(=O)(=O)c3ccc4c(c3)CCCN4C(C)=O)CC2)c1 | inactive: -4.07%
CC1CCN(c2nn3c(=O)c(C(=O)NCCCOC(C)C)cnc3s2)CC1 | inactive: -15.9%
Cc1c(C(=O)OCc2ccccc2)[nH]c2c1C(=O)CC(c1ccc(C(C)(C)C)cc1)C2 (stereo not drawn) | inactive: 0.197%
CCc1cccc(NC(=O)c2cc3c(=O)n(Cc4ccccc4)ccc3nc2C)c1 | inactive: -11.5%
Cc1ccc(CN2CCCn3nc(C(=O)NCCc4ccccc4C)cc3C2=O)cc1 | inactive: 0%
CC(C)c1ccc(NC(=O)C2CCN(C(=O)c3ccc(F)cc3)CC2)cc1 | inactive: -12.1%
COc1cc(C(=O)Nc2ccccc2-c2nc(-c3ccccc3)no2)cc(OC)c1OC | inactive: -9.38%
Cc1ccc(C)c(NC(=O)CN(C)S(=O)(=O)c2cccc3nsnc23)c1 | inactive: -0.481%
Cc1ccc(-n2nc(C(=O)Nc3ccc(F)cc3F)c3c4ccccc4n(C)c3c2=O)cc1 | inactive: -7.72%
Cc1cccc(N(C)c2nc3ccc(C(=O)c4ccccc4)cc3n3c(C)nnc23)c1 | inactive: 0.654%
CC(C)(C)C1CCc2c(sc(NC(=O)c3cc4ccccc4c(=O)o3)c2C(N)=O)C1 (stereo not drawn) | inactive: 1.38%
Cc1ccc(C)c(NC(=O)Cn2c(=O)n(CCC(C)C)c(=O)c3cccnc32)c1 | inactive: 0.716%
CCCCCOc1ccc(/C=C/C(=O)Nc2sc(C)c(C)c2C(=O)OCC)cc1OC | inactive: 2.75%
COc1ccccc1NC(=O)Cn1cc(S(=O)(=O)Cc2ccccc2)c2ccccc21 | inactive: -8.67%
CCN(CC)CCNC(=O)Cn1ncc2c3ccccc3n(Cc3ccc(Cl)cc3)c2c1=O | inactive: -6.3%
Cc1ccc(-c2csc(-c3nc(-c4ccc(Br)s4)cs3)n2)cc1 | inactive: -1.93%
COc1ccc(NC(=O)Cn2nnc(C(=O)NCc3cccs3)c2N)cc1 | inactive: -4.76%
Cc1ccc(NC(=O)CSc2nc(=O)n(Cc3cccnc3)c3c2CCC3)cc1F | inactive: -0.342%
COc1ccc(Cc2nc3ccc(C(=O)NCc4ccccc4C)cc3o2)cc1 | inactive: -6.41%
COc1ccc(NC(=O)CN2C(=O)CC(c3ccc(C)c(C)c3)=Nc3ccccc32)cc1OC | inactive: -15.6%
